# Laboratory results reported in the supplement of paper PMC4166925.
# ± gives the standard deviation of the averaged measurements. In all, about 33,000 sequences were measured (“E-score (dimensionless, -0.5 to 0.5)”: median about -0.049, highest 2% from about 0.37 on). The list shows a part of the results.
# Test system: T1, PmTbr T-box DNA-binding domain (GST fusion)
# T1 sequence: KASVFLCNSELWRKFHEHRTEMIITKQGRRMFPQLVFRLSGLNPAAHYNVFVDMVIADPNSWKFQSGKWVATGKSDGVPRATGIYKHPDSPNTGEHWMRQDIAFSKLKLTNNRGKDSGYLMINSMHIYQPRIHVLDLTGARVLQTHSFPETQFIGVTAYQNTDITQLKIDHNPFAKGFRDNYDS
# Assay: PBM E-score of 8-mer (E-score (dimensionless, -0.5 to 0.5)); Tbr is Tbrain of the sea star Patiria miniata (Pm) or the sea urchin Strongylocentrotus purpuratus (Sp); higher = stronger binding preference; most listed sequences are background and not binding sites
# Conditions: the construct has about 5 more residues each side
# In short: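 Each ungapped 8-mer received an enrichment E-score from the Universal PBM Analysis Suite, averaged over duplicate arrays. The proteins were Tbr T-box DNA-binding domains, covering the whole T-box plus about five flanking residues, fused to GST and expressed in BL21 E. coli at 20 °C before glutathione affinity purification. Universal Agilent oligonucleotide arrays were made double-stranded by primer extension and incubated with 200 nM protein in PBS (pH 7.5). The arrays were then scanned and quantified, and every 8-mer was scored from probe intensities.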
row,Sequence,PBM E-score of 8-mer
1,CTTGGAGA,0.0274 ± 0.0082
2,ATAATACG,-0.115 ± 0.035
3,CAGGCCCG,-0.108 ± 0.032
4,ACATACTG,0.188 ± 0.01
5,CACTCACG,0.179 ± 0.053
6,AACGGAAA,-0.2 ± 0.055
7,CGGTGCTC,-0.142 ± 0.053
8,AGTCTCGA,0.0498 ± 0.099
9,CTTCTCCC,-0.0169 ± 0.055
10,GTCCAGCA,-0.278 ± 0.015
11,CTGATACC,-0.0852 ± 0.013
12,CGGCGCTC,-0.00875 ± 0.12
13,TCGCGTAA,0.165 ± 0.013
14,AGAAATCG,0.0228 ± 0.017
15,GACTCATA,-0.131 ± 0.036
16,CTTTGTGA,0.028 ± 0.0037
17,CCTTCTCA,0.0208 ± 0.064
18,ACCCGGCC,-0.111 ± 0.024
19,AAAGAGTA,-0.0841 ± 0.045
20,AGCTTTGA,-0.203 ± 0.069
21,CGGAAGTC,-0.222 ± 0.029
22,CCTGAAAG,-0.2 ± 0.0059
23,GATTGGTA,-0.156 ± 0.024
24,AGGCAACG,0.0377 ± 0.055
25,GACCCCTC,-0.0517 ± 0.095

row,Sequence,PBM E-score of 8-mer
1,GACCACAC,0.198 ± 0.029
2,GCGCGCGC,0.0545 ± 0.0052
3,GGCCCTAC,-0.257 ± 0.08
4,CAGGGTAC,-0.0666 ± 0.085
5,CAGCCGGC,-0.0661 ± 0.03
6,AACCCGAT,0.0292 ± 0.021
7,AGAAGGCT,0.00817 ± 0.029
8,GGGAGTGA,0.221 ± 0.028
9,CTAACCAA,-0.135 ± 0.064
10,CCTGACCC,-0.188 ± 0.0044
11,CAGCGCTA,0.127 ± 0.046
12,TACGGTAA,-0.198 ± 0.065
13,CCTCGAAG,-0.0465 ± 0.028
14,AGGTTATA,0.0771 ± 0.0077
15,ATAAAGTC,-0.175 ± 0.031
16,CCGTAGTA,-0.0769 ± 0.078
17,GGCTTCAA,-0.121 ± 0.014
18,GCTGAACA,-0.128 ± 0.022
19,ATACTGAT,-0.0813 ± 0.025
20,ACAAAATA,0.017 ± 0.12
21,CCGAACAG,-0.1 ± 0.012
22,CGTGTAGC,-0.0922 ± 0.01
23,GATGAATC,-0.0796 ± 0.01
24,ACTCTAAC,-0.0797 ± 0.08
25,CTATACTC,-0.198 ± 0.0082

row,Sequence,PBM E-score of 8-mer
1,AGCCGCCC,-0.28 ± 0.029
2,CTCGCGGC,0.0944 ± 0.043
3,AGTCGCAC,0.395 ± 0.026
4,AATTCTTG,-0.0858 ± 0.019
5,CGATTCCC,-0.0208 ± 0.012
6,AGTGAGTG,0.0934 ± 0.016
7,ATCCCTTC,-0.218 ± 0.047
8,ACTCTCCA,-0.107 ± 0.026
9,AACGACGC,0.156 ± 0.024
10,CAACCCGC,0.0688 ± 0.0075
11,CGCCCAAA,-0.0907 ± 0.0051
12,CGCTGAAC,-0.00978 ± 0.092
13,GCCAGTGA,-0.0707 ± 0.048
14,ACATCACC,0.16 ± 0.02
15,CCATAAAA,-0.197 ± 0.0037
16,ACAATATG,0.148 ± 0.0069
17,CACTTACG,0.2808 ± 0.0006
18,AACGCCTG,0.3181 ± 0.002
19,CTTGAACC,-0.197 ± 0.054
20,AATATATT,-0.265 ± 0.13
21,GACAGCCA,0.146 ± 0.078
22,TCACAGAA,0.11 ± 0.041
23,GCGGGCTA,-0.365 ± 0.024
24,GATTACTA,-0.171 ± 0.037
25,AAACCCCG,-0.028 ± 0.019

row,Sequence,PBM E-score of 8-mer
1,ACGAGCAT,-0.0716 ± 0.032
2,CCGTACTA,-0.0976 ± 0.028
3,CACTAGCG,0.1821 ± 0.0004
4,CCAGGGTA,-0.0692 ± 0.069
5,CAAGCCTA,-0.112 ± 0.044
6,CTTTGGAC,-0.0263 ± 0.0036
7,ATTCTCGG,-0.082 ± 0.071
8,GTCACCAC,0.314 ± 0.04
9,ACCAACGA,0.0332 ± 0.14
10,CAAGGTCC,-0.3337 ± 0.001
11,AGCTTTCG,0.0201 ± 0.044
12,GCACAAGA,-0.0781 ± 0.058
13,TCCCGAGA,-0.111 ± 0.043
14,ACGTTACG,-0.0194 ± 0.015
15,TATCCCAA,-0.225 ± 0.094
16,ACGACACG,0.225 ± 0.062
17,GTAACCCA,-0.215 ± 0.011
18,AGACTTAG,-0.142 ± 0.014
19,AGGAACAA,0.0169 ± 0.026
20,ACTAAGAA,-0.242 ± 0.021
21,TATGAGGA,-0.247 ± 0.064
22,AGTTCGGC,-0.142 ± 0.0066
23,TACATTGA,-0.105 ± 0.017
24,CCTAGTTA,-0.121 ± 0.084
25,CATCGTAG,-0.1 ± 0.022

row,Sequence,PBM E-score of 8-mer
1,CCCACTCA,0.0959 ± 0.087
2,ACGAGTCC,-0.261 ± 0.054
3,GGCCATAC,-0.166 ± 0.0026
4,GGACCAAA,-0.308 ± 0.018
5,ACGCTTAC,0.0592 ± 0.021
6,CATATCAC,0.32 ± 0.021
7,ATTGTAGC,-0.0784 ± 0.022
8,ATCTATCC,-0.142 ± 0.049
9,AGGTATCA,0.201 ± 0.046
10,CCGAACAC,0.241 ± 0.053
11,TCGTAAGA,-0.15 ± 0.061
12,GTGTAACA,0.252 ± 0.042
13,AAGAGAAT,-0.269 ± 0.037
14,ATTGCTAC,-0.162 ± 0.067
15,GTAGTCAA,-0.128 ± 0.023
16,AAGTGTTC,0.298 ± 0.012
17,CGGGAACC,-0.0755 ± 0.052
18,AAGTATGA,-0.0407 ± 0.00071
19,GGATAGCC,-0.269 ± 0.045
20,AGTTAAAA,-0.129 ± 0.068
21,GCCCCTAC,-0.113 ± 0.049
22,ACAAGGTA,-0.0243 ± 0.03
23,AATAGCGC,0.213 ± 0.075
24,GGTCCACA,-0.0309 ± 0.11
25,AACACTCG,0.237 ± 0.037

row,Sequence,PBM E-score of 8-mer
1,CTGGCCCC,-0.154 ± 0.047
2,CTACTGGC,0.114 ± 0.025
3,CTCTGAGC,-0.0449 ± 0.047
4,AAAGGACC,-0.21 ± 0.074
5,CTCCAGCA,-0.143 ± 0.057
6,ATGACCAA,-0.183 ± 0.0051
7,CTCGTCCA,-0.0274 ± 0.078
8,AAGATCGA,-0.152 ± 0.084
9,GTCATGAA,-0.131 ± 0.042
10,AATGTGAT,0.258 ± 0.039
11,AGGCTACT,-0.0367 ± 0.044
12,AGCGCACC,0.0793 ± 0.0084
13,GATTCACC,-0.167 ± 0.0053
14,GTCGACCA,-0.0969 ± 0.041
15,ACGGTCGC,0.204 ± 0.02
16,AGGGTGTA,0.317 ± 0.0034
17,AAATGAGG,-0.179 ± 0.079
18,ATGTCGAC,0.0957 ± 0.04
19,GCCTCGCC,-0.0175 ± 0.055
20,AAACTCCG,0.0185 ± 0.0063
21,GTATATAC,0.0688 ± 0.066
22,ACCTTTAA,0.0452 ± 0.075
23,TCGACGCA,0.0353 ± 0.051
24,CTGTCATC,0.141 ± 0.036
25,CATTAAGC,-0.165 ± 0.091

row,Sequence,PBM E-score of 8-mer
1,GGCCAAAA,-0.204 ± 0.0029
2,AGATGCGG,-0.166 ± 0.021
3,CCAACCTA,-0.078 ± 0.018
4,CATAACAC,0.42 ± 0.0089
5,CACCATAG,0.248 ± 0.028
6,CATGCAAA,-0.1553 ± 0.001
7,CATCTCAG,-0.134 ± 0.067
8,ACGACACC,0.421 ± 0.018
9,CAGCTGCG,0.179 ± 0.036
10,AACCACCG,-0.163 ± 0.057
11,ACGCGGAA,-0.0594 ± 0.086
12,CTATCGAA,-0.118 ± 0.088
13,GTACTTCA,-0.0867 ± 0.048
14,ACCGTAGA,-0.195 ± 0.048
15,AAGGGCGG,-0.216 ± 0.011
16,CGTACACG,-0.0017 ± 0.053
17,AGCACTCA,0.0494 ± 0.0015
18,GACATTTA,-0.146 ± 0.089
19,CATCATCA,0.0903 ± 0.061
20,CGTTGGAC,-0.0164 ± 0.026
21,AAAGAAGA,-0.151 ± 0.054
22,ACGGTGGC,0.0669 ± 0.032
